According to the supplement of paper PMC10126150:
Sequences with one replicate were seen in a single cluster, so their values are uncertain.

System: ATP
Assay: switch fluorescence ratio, 500 uM ATP over buffer (Cy3 cluster intensity, sum of 5 cycles each) (fold (ratio)); higher = stronger signal-on switching upon ATP binding; sequences stand for … in TCGTCGGCAGCGTCAGATGTGTATAAGAGACAGTTTTTTTTTTTTTTTTTTTTTTTTT…TC
Details: aptamer strand: ATP DNA aptamer (quencher-CACCTGGGGGAGTATTGCGGAGGAAGG + anchor), 100 nM annealed; ATP concentration: 500 uM; one replicate
Procedure, shortened: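 Five buffer/ATP imaging cycles were run on Cy3-labelled switching-strand clusters on a modified Illumina MiSeq flow-cell, with NaOH stripping and re-annealing between cycles. In each cycle, clusters annealed to 100 nM quencher-labelled ATP aptamer were imaged in selection buffer, then after 15 min with 500 uM ATP at 22 °C. Per cluster, the fluorescence ratio is summed target-cycle over summed buffer-cycle Cy3 intensity, averaged per switch-domain sequence. Only clusters within 100-1000 RFU were kept.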
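Note: ATP exposure 15 min at 22 °C before imaging.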

| Sequence | switch fluorescence ratio |
| --- | --- |
| AAGTTCTTGG | 1.02 |
| AAGTTGAGAT | 1.01 |
| AAGTTGGAAG | 1.01 |
| AAGTTGTGGA | 0.996 |
| AAGTTTGCAA | 0.959 |
| AAGTTTGCC | 1.02 |
| AAGTTTTTT | 1 |
| AATAAAAAG | 1.02 |
| AATAAAGAAG | 0.983 |
| AATAAAGCGA | 0.991 |
| AATAAATGCG | 0.999 |
| AATAACACCC | 1.1 |
| AATAACATAG | 1.03 |
| AATAACCCTG | 0.993 |
| AATAACCTGT | 1.09 |
| AATAACTTTA | 1.05 |
| AATAAGCTGT | 0.982 |
| AATAAGGTCC | 0.928 |
| AATAATACTC | 1.39 |
| AATAATGGG | 1.02 |
| AATACAAGTT | 1.01 |
| AATACACTAC | 1.37 |
| AATACAGC | 1.03 |
| AATACAGTG | 1.01 |
| AATACCAGCT | 1.02 |
| AATACCCACG | 1.54 |

| Sequence | switch fluorescence ratio |
| --- | --- |
| AATAGCATTT | 0.958 |
| AATAGCGGCC | 1.08 |
| AATAGGCA | 0.986 |
| AATAGGCGGG | 1.01 |
| AATAGGGTAG | 1.03 |
| AATAGGTGTG | 1.03 |
| AATAGGTTTC | 0.973 |
| AATATACGTT | 1.03 |
| AATATAGGCT | 1.01 |
| AATATATAGG | 1.02 |
| AATATCATGA | 1.03 |
| AATATCCCGC | 1.1 |
| AATATGCCGT | 0.989 |
| AATATGGCTT | 1.03 |
| AATATGGTGC | 1.01 |
| AATATGTGAA | 1 |
| AATATTACCC | 1.06 |
| AATATTATCA | 1.01 |
| AATCAAAAGT | 1 |
| AATCAAGTTC | 0.975 |
| AATCACGGGA | 0.954 |
| AATCATATCA | 1.04 |
| AATCATCGCA | 1.04 |
| AATCCACGG | 1.16 |
| AATCCAGCGG | 1.01 |
| AATCCCAATT | 1.02 |

| Sequence | switch fluorescence ratio |
| --- | --- |
| AATCGCGCAC | 1.4 |
| AATCGCGCTA | 1.01 |
| AATCGCTAA | 1.09 |
| AATCGCTGTA | 1.04 |
| AATCGGAGT | 1.01 |
| AATCGGCAGT | 1.01 |
| AATCGGCCGC | 1.02 |
| AATCGGCGAT | 1.01 |
| AATCGGGATA | 0.971 |
| AATCGTCATT | 0.973 |
| AATCTAATTT | 1.02 |
| AATCTCCCCT | 1.57 |
| AATCTCCGGG | 1.1 |
| AATCTCCTTA | 1.01 |
| AATCTGAGGG | 0.998 |
| AATCTGCCAG | 0.994 |
| AATCTGGTAT | 1.01 |
| AATCTGTG | 1.02 |
| AATCTTTAGG | 0.986 |
| AATGAAAACT | 1.02 |
| AATGACTC | 1.04 |
| AATGAGGAC | 1.29 |
| AATGAGTAGG | 0.967 |
| AATGATAGCG | 1.05 |
| AATGATCCGG | 1.03 |
| AATGATGACG | 1.04 |

| Sequence | switch fluorescence ratio |
| --- | --- |
| AATGATTTTA | 0.999 |
| AATGCACCCC | 1.21 |
| AATGCACGAG | 1.04 |
| AATGCGGTTT | 1 |
| AATGCGTCTT | 0.991 |
| AATGCTTTAA | 0.983 |
| AATGGAAGA | 0.996 |
| AATGGATCGG | 0.981 |
| AATGGATGTC | 0.988 |
| AATGGCAATC | 2.38 |
| AATGGCCGAT | 1.02 |
| AATGGCGTAC | 1.05 |
| AATGGGATC | 1 |
| AATGGGATGC | 1.04 |
| AATGGGCATA | 0.985 |
| AATGGGCATC | 1.02 |
| AATGGGCGGG | 0.952 |
| AATGGGCGGT | 1.01 |
| AATGGGTAGG | 0.98 |
| AATGGTAG | 0.972 |
| AATGGTATG | 0.99 |
| AATGGTGCC | 0.985 |
| AATGGTTCGT | 1 |
| AATGGTTGCG | 0.997 |
| AATGTAGCAG | 1.03 |
| AATGTAGCGA | 1.1 |

| Sequence | switch fluorescence ratio |
| --- | --- |
| AATGTAGCGC | 0.974 |
| AATGTAGTGT | 0.998 |
| AATGTATCA | 0.974 |
| AATGTCACGT | 1.02 |
| AATGTCCGCT | 1.41 |
| AATGTCGGTA | 1.01 |
| AATGTGAGC | 0.977 |
| AATGTGCGG | 0.954 |
| AATGTTG | 0.991 |
| AATGTTGAT | 0.989 |
| AATTACATT | 0.978 |
| AATTACCTTA | 1.05 |
| AATTACGAGA | 1.05 |
| AATTACGCGG | 1.06 |
| AATTAGTACC | 0.945 |
| AATTATGCTG | 1.03 |
| AATTCATGAA | 0.948 |
| AATTCATTAG | 0.99 |
| AATTCCAGGC | 0.887 |
| AATTCGAACG | 0.962 |
| AATTCGAGCC | 1.03 |
| AATTCGCTCT | 1.05 |
| AATTCTACCG | 1.07 |
| AATTCTAGTT | 0.979 |
| AATTCTGACG | 1.02 |
| AATTCTGGAT | 1.02 |

| Sequence | switch fluorescence ratio |
| --- | --- |
| AATTGAAGCA | 1.06 |
| AATTGAGGGG | 1.01 |
| AATTGATGT | 1.02 |
| AATTGCAACA | 1.05 |
| AATTGCAGAT | 1.01 |
| AATTGCGAGC | 1.01 |
| AATTGCTGGG | 1.04 |
| AATTGCTTAC | 1.18 |
| AATTGGAT | 0.977 |
| AATTGGTCGG | 1.03 |
| AATTGGTGTA | 1.01 |
| AATTGTATAA | 0.997 |
| AATTTAGTGA | 0.9 |
| AATTTCCAAC | 1.03 |
| AATTTGAG | 0.999 |
| AATTTGAGGC | 1.02 |
| AATTTGGGCC | 0.975 |
| AATTTGTCG | 1.11 |
| AATTTGTCTC | 0.978 |
| AATTTTATT | 0.995 |
| AATTTTATTC | 1.02 |
| AATTTTTGG | 1.27 |
| ACAAAAACCC | 1.02 |
| ACAAAAGCGC | 1.03 |
| ACAAACGTTA | 1.25 |
| ACAAAGTCGC | 1.01 |

| Sequence | switch fluorescence ratio |
| --- | --- |
| ACAAATCGAC | 1.1 |
| ACAAATTAGG | 1.01 |
| ACAACCCTG | 1.04 |
| ACAACGGGG | 1.02 |
| ACAACGGTGC | 1.24 |
| ACAAGAGTAT | 0.998 |
| ACAAGCAAAG | 1.16 |
| ACAAGCCATC | 1.08 |
| ACAAGCGACG | 1.05 |
| ACAAGCGCGA | 0.999 |
| ACAAGGCTAC | 1.33 |
| ACAAGTCCGC | 1.86 |
| ACAAGTGCAC | 1.04 |
| ACAAGTTAAA | 0.956 |
| ACAAGTTCCC | 0.992 |
| ACAATAATGG | 1.04 |
| ACAATATAGG | 1.04 |
| ACAATATATT | 1.04 |
| ACAATCCCAC | 1.04 |
| ACAATCTTTT | 1 |
| ACAATGCCAA | 1.01 |
| ACAATGCGAC | 2.51 |
| ACAATTCCAA | 1.01 |
| ACACACCCGC | 1.33 |
| ACACACGCTC | 1.35 |
| ACACACGTCG | 1.33 |

| Sequence | switch fluorescence ratio |
| --- | --- |
| ACACATCTGG | 1.01 |
| ACACCACTAT | 1.31 |
| ACACCGGGA | 1.16 |
| ACACCGGGGT | 1.02 |
| ACACCGGTTT | 1.07 |
| ACACGAGTCG | 1.03 |
| ACACGAGTT | 0.983 |
| ACACGATAAG | 1.09 |
| ACACGCAGGG | 0.964 |
| ACACGGAATC | 1.65 |
| ACACGGGGCC | 1.05 |
| ACACGTAGAT | 1.1 |
| ACACTAATGA | 1.04 |
| ACACTCAATG | 1.02 |
| ACACTCCGCT | 3.13 |
| ACACTGAGGG | 0.984 |
| ACACTGGTCA | 0.986 |
| ACAGAAACCC | 1.1 |
| ACAGAATTGC | 0.979 |
